# Test results: paper PMC4336329 (PLoS ONE, 2015)
# Hit rate of the full screen: of about 310,000 compounds, about 2,200 (0.71%) showed an effect of 50% or more. Effects have a minus sign here. The list shows a part of the results.
# Target: human ether-à-go-go-related gene (hERG) potassium channel (human, UniProt Q12809)
# Test: primary screen, population patch clamp on CHO cells stably expressing hERG
# Sequence of human ether-à-go-go-related gene (hERG) potassium channel (Q12809 whole entry, looked up): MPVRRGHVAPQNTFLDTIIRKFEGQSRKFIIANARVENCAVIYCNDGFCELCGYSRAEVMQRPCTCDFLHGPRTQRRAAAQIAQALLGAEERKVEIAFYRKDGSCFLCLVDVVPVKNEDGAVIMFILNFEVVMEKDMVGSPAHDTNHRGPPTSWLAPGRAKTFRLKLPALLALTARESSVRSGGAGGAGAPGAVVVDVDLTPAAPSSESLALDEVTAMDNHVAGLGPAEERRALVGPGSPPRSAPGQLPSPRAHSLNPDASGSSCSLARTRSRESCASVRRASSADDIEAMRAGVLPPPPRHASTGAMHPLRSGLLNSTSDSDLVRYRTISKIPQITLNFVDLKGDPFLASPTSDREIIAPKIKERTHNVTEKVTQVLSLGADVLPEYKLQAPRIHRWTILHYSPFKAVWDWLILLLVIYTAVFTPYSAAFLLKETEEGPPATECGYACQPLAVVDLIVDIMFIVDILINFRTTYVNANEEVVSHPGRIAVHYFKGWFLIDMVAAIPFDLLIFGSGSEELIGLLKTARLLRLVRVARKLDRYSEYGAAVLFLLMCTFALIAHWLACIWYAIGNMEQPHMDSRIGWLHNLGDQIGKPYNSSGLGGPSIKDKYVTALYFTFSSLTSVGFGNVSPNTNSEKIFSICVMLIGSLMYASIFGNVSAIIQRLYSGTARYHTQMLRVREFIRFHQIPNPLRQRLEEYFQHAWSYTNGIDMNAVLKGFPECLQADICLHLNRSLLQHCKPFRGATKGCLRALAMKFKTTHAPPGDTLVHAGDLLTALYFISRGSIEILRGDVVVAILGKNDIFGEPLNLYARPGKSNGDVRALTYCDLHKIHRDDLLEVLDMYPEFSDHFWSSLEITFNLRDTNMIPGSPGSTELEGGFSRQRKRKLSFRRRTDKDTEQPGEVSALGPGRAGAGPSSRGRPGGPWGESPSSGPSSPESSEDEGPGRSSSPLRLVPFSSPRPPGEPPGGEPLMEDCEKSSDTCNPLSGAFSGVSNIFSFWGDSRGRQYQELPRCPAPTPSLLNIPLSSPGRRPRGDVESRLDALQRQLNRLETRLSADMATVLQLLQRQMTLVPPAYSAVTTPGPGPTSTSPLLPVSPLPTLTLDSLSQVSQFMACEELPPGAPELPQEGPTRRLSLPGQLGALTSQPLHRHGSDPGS
row,SMILES,"hERG current change (%, negative = inhibition) at 1uM [%]"
1,O=C(Nc1ccc(F)cc1)C1CC(=O)N(Cc2ccco2)C1 (centres unmarked),7.85
2,O=C1c2sc3nc4n(c(=O)c3c2CCC1Br)CCCCC4 (centres unmarked),8.13
3,Cc1ccc(OCC(=O)Nc2sc3c(c2C#N)CCC3)cc1C,4.44
4,COCc1nnc(NC(=O)c2ccc(S(=O)(=O)N(C)c3ccccc3)cc2)o1,14.1
5,O=C(NCC(=O)N(CCc1ccccc1)C(C(=O)NC1CCCCC1)c1ccncc1)c1ccco1 (centres unmarked),-24.1
6,C/C(=N\NC(=O)C(=O)Nc1cc(C)ccc1C)c1ccncc1,8.67
7,CCc1ccc(N(C(=O)c2ccco2)C(C(=O)NC2CCCC2)c2ccncc2)cc1 (centres unmarked),3.89
8,COc1cc(OC)nc(N/N=C(\c2ccccc2)c2ccncc2)n1,-0.121
9,COC(=O)c1ccc(NC(=O)Cn2c([N+](=O)[O-])cnc2C)cc1,5.29
10,Cc1ccc2nc(-c3ccc(N4C(=NC(=O)CCC(=O)O)SC5CS(=O)(=O)CC54)cc3)sc2c1 (centres unmarked),2.33
11,c1ccc(C2CCC3(CC2)Oc2ccccc2C2CC(c4cccnc4)=NN23)cc1 (centres unmarked),6.45
12,COc1cc2c(cc1NC(=O)C(C)NCc1ccccc1)oc1ccccc12 (centres unmarked),8.93
13,O=C(OCC#CCSc1nnc(-c2ccccc2)o1)c1ccco1,12.6
14,COC(=O)[C@]1(CC(C)C)N[C@H](c2ccc(SC3CCCCC3)c(OC)c2)[C@@H]2C(=O)N(C)C(=O)[C@@H]21.O=C(O)C(F)(F)F,7.7
15,CSc1nc2ccccc2n1CC(=O)Nc1c(C)n(C)n(-c2ccccc2)c1=O,9.92
16,CCOc1ccc(N2C(=O)c3cccnc3C2=O)cc1,12.1
17,CC(C)[C@H]1COCCS(=O)(=O)N1Cc1ccccc1F,8.68
18,CCOC(=O)Cn1nc(-c2ccc(F)cc2)oc1=O,0.298
19,CCOC(=O)c1c(C)nc2c(c1-c1ccc(OC)cc1)C(=O)CC(C)(C)C2,7.75
20,NC(=S)Nc1cccc(Cl)c1,14.2
21,Cc1nc(SCc2ccccc2)nc2c1CCC2,10.1
22,CN1CC(C(=O)c2ccccc2)C(C(=O)c2ccccc2)C1 (centres unmarked),0.868

row,SMILES,"hERG current change (%, negative = inhibition) at 1uM [%]"
1,COC(=O)c1cc(NC(=O)c2cccc([N+](=O)[O-])c2C)ccc1Cl,-5.92
2,CS(=O)(=O)N1CCN(c2ccc(NC(=O)CSc3ccc(Cl)cc3)cc2)CC1,6.23
3,NC(=O)c1ccsc1NC(=O)c1cc(=O)c2ccccc2o1,0.155
4,C/C=C/C=C/[C@H]1Cc2cc(O)cc(O)c2O1,8.01
5,O=C(N/N=C/c1cccnc1)c1cc(C2CC2)nc2ccccc12,14.7
6,O=C(NC1CCCCCCC1)c1ccccc1-c1ccccc1,-0.961
7,C[C@@H]1CN=C2N(CCNC(=O)CCC3CCCCC3)[C@H](Cc3ccc(O)cc3)CN21,7.9
8,O=[n+]1cc(-c2ccc(Cl)cc2)n([O-])c2c1CCC2,14.8
9,O=C(CCNC(=O)C1CCN(S(=O)(=O)c2ccc(F)cc2)CC1)NCc1ccncc1,7.8
10,CCCOc1ccc(C2C(C(=O)c3ccc(C)o3)=C(O)C(=O)N2CCN2CCOCC2)cc1OC (centres unmarked),10.1
11,CC(=O)N1N=C(c2cccc(NS(C)(=O)=O)c2)CC1c1cccs1 (centres unmarked),-3.53
12,Cc1sc2ncn(CC(=O)NCCCC(=O)N3CCN(c4ccccc4F)CC3)c(=O)c2c1C,10.4
13,Cc1nc(-c2cnn(-c3ccccc3)c2)c2cc(C)oc2n1,10.3
14,CN1CCCc2cc(C=O)ccc21,16
15,CC(C)[C@@H](N)C(=O)N/N=C/c1ccc2nccnc2c1.Cl,13.5
16,CCCCN(C(=O)C1CCN(C(=O)c2ccccc2C)CC1)c1c(N)n(CCCC)c(=O)[nH]c1=O,13
17,COc1ccc(C2=NN(Cc3ccccc3)C3C(=O)NC(=O)C23)cc1 (centres unmarked),8.42
18,CCCC(=O)O[C@]1(C(=O)COC(C)=O)CC[C@H]2[C@@H]3C[C@H](F)C4=CC(=O)C=C[C@]4(C)[C@@]3(F)[C@@H](O)C[C@@]21C,9.48
19,CCN(CC)S(=O)(=O)c1cccc(C(=O)NC(C(=O)Nc2nnc(C3CC3)s2)C(C)C)c1 (centres unmarked),10.1
20,c1coc(CNC2C3CC4CC(C3)CC2C4)c1 (centres unmarked),10.6
21,COC(=O)c1sc2ncccc2c1OCc1ccccc1Cl,-14.8
22,CC(=C1C(=O)c2ccccc2C1=O)N1CCN(CCN=Cc2c(O)n(C)c(=O)n(C)c2=O)CC1,9.9
